Measured values from PubChem BioAssay (NCATS).
Inconclusive means that the source gave no clear call. Such entries were picked first, then a sample of the others. No potency is given beside an inconclusive call; the fits are too rough. Active and inactive are the calls of the source. Calls come from the whole dose curve; as a rule, active = well fitted curve in the direction sought with a large enough effect; inconclusive = small, poorly fitted or top-dose-only effect, or another doubt; inactive = no such curve, though single readings can be large; an effect the other way counts as inactive or inconclusive.

Key:
[1] = biological target: Rap guanine nucleotide exchange factor 3 (Homo sapiens) (UniProt O95398); test: Confirmatory qHTS for antagonist of cAMP-regulated guanine nucleotide exchange factor 3 (EPAC1) (AID 1645880); settings: EPAC1 Rap1B-BODIPY-GDP exchange, fluorescence; activity, negative = inhibition: at 115 µM (top of the series); note: nearly all actives have a fitted effect of over 55% in size;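 for activity, negative = inhibition: plate controls were DMSO only for no effect and full effect of the ATA control for full effect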
How it was run: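 Nucleotide exchange uses 100 nM EPAC1, 250 nM RAP1B-BODIPY-GDP and 50 uM GDP, with compounds in a concentration-titration series. After 5 min at room temperature, fluorescence (480 nm ex/540 nm em) is read every 5 min for 30 min. Data are normalized to control ATA and DMSO.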

[2] = biological target: Rap guanine nucleotide exchange factor 3 (Homo sapiens) (UniProt O95398); test: Counterscreen qHTS for agonist of cAMP-regulated guanine nucleotide exchange factor 3 (EPAC1) (AID 1645889); settings: EPAC1 Rap1B-BODIPY-GDP exchange, fluorescence; activation: at 154 µM (top of the series) unless noted; note: nearly all actives have a fitted effect of over 40% in size; for activation: % of control where 0% means no effect
How it was run: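 Measured: fluorescence of BODIPY-GDP bound to Rap1B, which falls as exchange proceeds. Conditions include 50 uM competing GDP, 5 and 30 min reads, and a later cAMP challenge for antagonist detection.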
Potency is the fitted concentration of half-maximal effect; tags give direction and shape of the fitted curve.

UniProt O95398, sequence (O95398 whole entry, looked up): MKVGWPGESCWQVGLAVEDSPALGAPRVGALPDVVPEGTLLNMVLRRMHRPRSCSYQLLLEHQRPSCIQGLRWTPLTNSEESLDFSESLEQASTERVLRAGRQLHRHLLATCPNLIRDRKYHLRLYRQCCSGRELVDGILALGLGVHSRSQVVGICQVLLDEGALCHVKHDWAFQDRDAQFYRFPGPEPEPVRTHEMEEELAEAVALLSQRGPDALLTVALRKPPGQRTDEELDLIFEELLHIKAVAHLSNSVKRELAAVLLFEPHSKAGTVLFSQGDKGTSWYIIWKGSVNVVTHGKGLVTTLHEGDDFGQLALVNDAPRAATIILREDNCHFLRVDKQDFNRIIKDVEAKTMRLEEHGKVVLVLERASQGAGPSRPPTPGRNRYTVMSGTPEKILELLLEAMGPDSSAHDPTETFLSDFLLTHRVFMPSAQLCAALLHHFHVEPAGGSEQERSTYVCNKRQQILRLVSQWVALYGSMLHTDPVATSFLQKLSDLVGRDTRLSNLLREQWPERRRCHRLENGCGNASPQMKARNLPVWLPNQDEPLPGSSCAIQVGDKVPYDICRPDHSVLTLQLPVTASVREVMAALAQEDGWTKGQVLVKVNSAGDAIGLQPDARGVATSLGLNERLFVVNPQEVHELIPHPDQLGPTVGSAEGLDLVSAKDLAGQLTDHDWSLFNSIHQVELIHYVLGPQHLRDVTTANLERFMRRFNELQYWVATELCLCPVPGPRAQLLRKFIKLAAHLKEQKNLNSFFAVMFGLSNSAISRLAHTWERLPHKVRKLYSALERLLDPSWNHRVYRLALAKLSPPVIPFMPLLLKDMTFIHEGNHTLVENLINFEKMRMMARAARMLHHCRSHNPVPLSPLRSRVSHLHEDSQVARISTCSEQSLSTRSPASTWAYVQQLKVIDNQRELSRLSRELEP

SMILES | Potency [1] | activation [2] | Potency [2]
CN(CC(=O)Nc1ccc(Cl)c(C(F)(F)F)c1)CC(=O)NC1CCCCC1 | inconclusive [inhibitor, partial curve, poor fit] | inconclusive: 34.4% [activator] | 
COc1cc(C(C)=O)ccc1COc1ccc(C(=O)O)cc1OC | inactive | inactive: -0.313% [at 30.8 µM] | 
O=C(Nc1ccccc1C(=O)O)c1cccc(NC(=O)c2ccc(Br)o2)c1 | inconclusive [inhibitor, partial curve] | inconclusive: 24.8% [activator] | 
COc1cc(/C=C2/C(=O)NN(c3ccc(Cl)cc3)C2=O)ccc1OC(=O)c1ccco1 | active: 47.8 µM |  | inconclusive [activator, partial curve, poor fit]
Cc1ccc(N(Cc2ccc([N+](=O)[O-])cc2)C(=O)c2ccco2)cc1C | inconclusive [inhibitor, partial curve, poor fit] |  | inactive
CC(C)(C)NC(=O)NC(=O)CN1CCN(S(=O)(=O)c2ccc3c(c2)CCCC3)CC1 | inconclusive [inhibitor, partial curve, poor fit] | inactive: 6.75% [at 30.8 µM] | 
CCOC(=O)C1=C(C)N=c2s/c(=C/c3cccc([N+](=O)[O-])c3O)c(=O)n2C1c1ccccc1 (stereo unspecified) | inconclusive [inhibitor, partial curve] |  | inactive
Cc1ccc(C)n1-c1c(C(=O)NCCC(C)C)sc2ncccc12 | inactive | inconclusive: 35.4% [activator] | 
